{"source": "patent US20240383955A1", "about": "“MODIFIED ANTIMICROBIAL PEPTIDES” (priority 2021, published 2024)", "key": {"C. glabrata": {"tested_on": "C. glabrata", "experiment": "Peptide or protein/Fluconazole combination, MIC and FICI", "details": "Full Length MtDef4 Protein/Fluconazole combination"}, "C. albicans": {"tested_on": "C. albicans", "experiment": "Peptide or protein/Fluconazole combination, MIC and FICI", "details": "Full Length MtDef4 Protein/Fluconazole combination"}}}
{"smiles": "OC(Cn1cncn1)(Cn1cncn1)c1ccc(F)cc1F", "note": "[Fluconazole, reference compound]", "values": [{"measurement": "MIC in combination", "setting": "C. glabrata", "result": 64, "unit": "µg/mL"}, {"measurement": "MIC in combination", "setting": "C. albicans", "result": 2, "unit": "µg/mL"}]}
